The data set concerns the molecule itself. In words: cryo-EM structure.

These results are taken from paper PMC8931350 (Proceedings of the National Academy of Sciences of the …, 2022).

As usually defined, the stoichiometry N is the number of molecules, sites or subunits per partner or assembly.

B1: PYD-deleted recombinant human NLRP3 (residues 130 to 1,036) (domain or fragment)
chain: not shown
Regarding B1, the “stoichiometry N” value worked out at 6.
